From the supplement of paper PMC11125491
± gives the standard deviation of the averaged measurements. Growth of baker's yeast expressing single-residue variants of Pneumocystis jirovecii dihydrofolate reductase in 8.8 or 44 µM methotrexate (about 75% and 90% inhibition of the wild type). Selection coefficient per generation; 0 = like wild type, above 0 = less sensitive, below 0 = more sensitive or loss of function. No active / inactive call per row; the paper calls resistant above 0.220 (8.8 µM) or 0.243 (44 µM) together with a significance test. At 44 µM about 15% of codons end with one read or none, so the lowest values are floors (replicate rank correlation 0.74; 0.94 at 8.8 µM).

B1: UniProt A0EPZ9; numbered along this chain (parent)
chain: MDWQKSLTLIVALTLSRGIGLKNDLPWKLKSDMMFFSRVTSGLLVTRSTGQMNVVLMGRKTWESLPAHSRPLKNRINVVISRQEVLDLGGGAYHARSLDDALALLSQIYDSTSKIQLNRVFVIGGGELCKAAMEHSRLNRIIATVIHNEVDCDVFFPIDFRSSQSCLPWRKQDHSVLEAWVGSKVPQGKINENGFIYEFEMWIRDI

Variants of: B1
Assay: selection coefficient against synonymous wild-type codons (log2 per generation); higher = faster growth than wild type
Settings: with Saccharomyces cerevisiae carrying the variant on a plasmid
Protocol: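 Pooled growth of yeast carrying single-residue variants of P. jirovecii dihydrofolate reductase (own DFR1 gene intact), two passages at 30 °C, three cultures, sequenced before and after. Codons with under 15 starting reads are left out; codons of one change are averaged.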

| Variant | selection coefficient against synonymous wild-type codons (log2) (methotrexate 8.8 µM) | selection coefficient against synonymous wild-type codons (log2) (methotrexate 44 µM) |
| --- | --- | --- |
| I80D | -0.708 ± 0.057 | -0.205 ± 0.026 |
| I80E | -0.662 ± 0.02 | -0.16 ± 0.06 |
| I80F | -0.703 ± 0.031 | -0.2 ± 0.057 |
| I80G | -0.789 ± 0.075 | -0.285 ± 0.07 |
| I80H | -0.508 ± 0.058 | -0.00728 ± 0.022 |
| I80K | -0.633 ± 0.057 | -0.174 ± 0.051 |
| I80L | -0.148 ± 0.049 | -0.1 ± 0.12 |
| I80M | -0.478 ± 0.055 | -0.218 ± 0.15 |
| I80N | -0.588 ± 0.026 | -0.0862 ± 0.096 |
| I80Q | -0.71 ± 0.06 | -0.207 ± 0.027 |
| I80R | -0.674 ± 0.067 | -0.186 ± 0.059 |
| I80S | -0.576 ± 0.095 | -0.122 ± 0.1 |
| I80T | -0.672 ± 0.07 | -0.169 ± 0.071 |
| I80V | -0.108 ± 0.024 | -0.112 ± 0.093 |
| I80W | -0.559 ± 0.12 | -0.143 ± 0.085 |
| I80Y | -0.635 ± 0.041 | -0.132 ± 0.08 |
| S81A | -0.259 ± 0.11 | -0.23 ± 0.084 |
| S81C | -0.118 ± 0.06 | -0.119 ± 0.18 |
| S81D | -0.107 ± 0.086 | 0.437 ± 0.023 |
| S81E | -0.172 ± 0.057 | 0.179 ± 0.084 |
| S81F | -0.634 ± 0.11 | -0.262 ± 0.05 |
| S81G | -0.584 ± 0.12 | -0.265 ± 0.07 |
| S81H | -0.263 ± 0.082 | -0.129 ± 0.04 |

| Variant | selection coefficient against synonymous wild-type codons (log2) (methotrexate 8.8 µM) | selection coefficient against synonymous wild-type codons (log2) (methotrexate 44 µM) |
| --- | --- | --- |
| S81I | -0.618 ± 0.072 | -0.227 ± 0.057 |
| S81K | -0.685 ± 0.068 | -0.225 ± 0.056 |
| S81L | -0.703 ± 0.09 | -0.163 ± 0.28 |
| S81M | -0.766 ± 0.055 | -0.22 ± 0.085 |
| S81N | -0.283 ± 0.074 | -0.208 ± 0.12 |
| S81P | -0.549 ± 0.051 | -0.048 ± 0.061 |
| S81Q | -0.661 ± 0.051 | -0.201 ± 0.059 |
| S81R | -0.682 ± 0.048 | -0.164 ± 0.093 |
| S81T | -0.515 ± 0.071 | -0.212 ± 0.081 |
| S81V | -0.697 ± 0.14 | -0.341 ± 0.057 |
| S81W | -0.632 ± 0.052 | -0.13 ± 0.032 |
| S81Y | -0.54 ± 0.079 | -0.151 ± 0.074 |
| R82A | -0.177 ± 0.039 | -0.262 ± 0.099 |
| R82C | -0.309 ± 0.083 | -0.245 ± 0.038 |
| R82D | 0.263 ± 0.065 | 0.35 ± 0.058 |
| R82E | 0.137 ± 0.028 | 0.246 ± 0.21 |
| R82F | -0.613 ± 0.13 | -0.223 ± 0.062 |
| R82G | -0.195 ± 0.045 | -0.273 ± 0.14 |
| R82H | -0.224 ± 0.059 | -0.157 ± 0.033 |
| R82K | -0.0705 ± 0.091 | -0.18 ± 0.074 |
| R82L | -0.46 ± 0.11 | -0.204 ± 0.17 |
| R82M | -0.367 ± 0.054 | -0.152 ± 0.081 |
| R82N | -0.136 ± 0.032 | -0.179 ± 0.063 |

| Variant | selection coefficient against synonymous wild-type codons (log2) (methotrexate 8.8 µM) | selection coefficient against synonymous wild-type codons (log2) (methotrexate 44 µM) |
| --- | --- | --- |
| R82P | 0.341 ± 0.03 | 0.516 ± 0.064 |
| R82Q | -0.0862 ± 0.051 | -0.185 ± 0.083 |
| R82S | -0.0674 ± 0.03 | -0.0588 ± 0.068 |
| R82T | -0.152 ± 0.069 | -0.204 ± 0.063 |
| R82V | -0.349 ± 0.085 | -0.293 ± 0.12 |
| R82W | -0.508 ± 0.071 | -0.256 ± 0.091 |
| R82Y | -0.583 ± 0.12 | -0.28 ± 0.021 |
| Q83A | -0.177 ± 0.022 | -0.142 ± 0.11 |
| Q83C | -0.233 ± 0.13 | -0.286 ± 0.033 |
| Q83D | 0.178 ± 0.032 | 0.206 ± 0.23 |
| Q83E | 0.0646 ± 0.012 | -0.082 ± 0.13 |
| Q83F | -0.357 ± 0.053 | -0.0744 ± 0.042 |
| Q83G | -0.188 ± 0.058 | -0.228 ± 0.13 |
| Q83H | -0.122 ± 0.024 | -0.0714 ± 0.073 |
| Q83I | -0.5 ± 0.066 | -0.0684 ± 0.075 |
| Q83K | -0.0113 ± 0.04 | -0.0466 ± 0.056 |
| Q83L | -0.494 ± 0.11 | -0.212 ± 0.11 |
| Q83M | -0.384 ± 0.085 | -0.376 ± 0.045 |
| Q83N | -0.244 ± 0.029 | -0.0773 ± 0.019 |
| Q83P | -0.551 ± 0.058 | -0.156 ± 0.15 |
| Q83R | -0.0211 ± 0.039 | -0.0454 ± 0.1 |
| Q83S | -0.129 ± 0.034 | -0.1 ± 0.28 |
| Q83T | -0.232 ± 0.079 | -0.17 ± 0.078 |

| Variant | selection coefficient against synonymous wild-type codons (log2) (methotrexate 8.8 µM) | selection coefficient against synonymous wild-type codons (log2) (methotrexate 44 µM) |
| --- | --- | --- |
| Q83V | -0.377 ± 0.084 | -0.192 ± 0.12 |
| Q83W | -0.627 ± 0.11 | -0.268 ± 0.069 |
| E84A | -0.124 ± 0.045 | -0.083 ± 0.099 |
| E84C | -0.388 ± 0.066 | -0.331 ± 0.056 |
| E84D | -0.0452 ± 0.094 | -0.0129 ± 0.091 |
| E84F | -0.624 ± 0.13 | -0.233 ± 0.042 |
| E84G | -0.293 ± 0.044 | -0.206 ± 0.07 |
| E84I | -0.498 ± 0.14 | -0.183 ± 0.048 |
| E84K | 0.0165 ± 0.01 | -0.00768 ± 0.15 |
| E84L | -0.422 ± 0.09 | -0.227 ± 0.11 |
| E84M | -0.353 ± 0.026 | -0.281 ± 0.048 |
| E84N | -0.169 ± 0.093 | 0.273 ± 0.53 |
| E84P | -0.0584 ± 0.065 | -0.0563 ± 0.077 |
| E84Q | -0.105 ± 0.005 | -0.0907 ± 0.18 |
| E84R | -0.128 ± 0.068 | -0.0855 ± 0.15 |
| E84S | -0.201 ± 0.06 | -0.125 ± 0.11 |
| E84T | -0.211 ± 0.052 | -0.14 ± 0.12 |
| E84V | -0.367 ± 0.1 | -0.258 ± 0.096 |
| E84W | -0.577 ± 0.17 | -0.367 ± 0.048 |
| E84Y | -0.497 ± 0.097 | -0.27 ± 0.024 |
| V85A | 0.0723 ± 0.027 | 0.054 ± 0.12 |
| V85C | 0.0841 ± 0.021 | 0.136 ± 0.042 |
| V85D | 0.114 ± 0.05 | 0.152 ± 0.017 |

| Variant | selection coefficient against synonymous wild-type codons (log2) (methotrexate 8.8 µM) | selection coefficient against synonymous wild-type codons (log2) (methotrexate 44 µM) |
| --- | --- | --- |
| V85E | 0.127 ± 0.03 | 0.18 ± 0.076 |
| V85F | -0.034 ± 0.031 | -0.0752 ± 0.14 |
| V85G | 0.0263 ± 0.035 | -0.038 ± 0.081 |
| V85H | 0.228 ± 0.025 | 0.313 ± 0.064 |
| V85I | -0.0161 ± 0.12 | -0.0158 ± 0.056 |
| V85K | 0.279 ± 0.061 | 0.399 ± 0.047 |
| V85L | -0.197 ± 0.061 | -0.149 ± 0.14 |
| V85M | -0.0553 ± 0.0094 | -0.0328 ± 0.05 |
| V85N | 0.201 ± 0.018 | 0.298 ± 0.12 |
| V85P | -0.003 ± 0.1 | 0.0622 ± 0.16 |
| V85Q | 0.122 ± 0.026 | 0.205 ± 0.019 |
| V85R | 0.14 ± 0.044 | 0.221 ± 0.06 |
| V85S | 0.224 ± 0.029 | 0.258 ± 0.058 |
| V85T | 0.153 ± 0.034 | 0.191 ± 0.07 |
| V85W | -0.211 ± 0.015 | -0.185 ± 0.13 |
| L86A | 0.00562 ± 0.039 | -0.0917 ± 0.071 |
| L86C | -0.172 ± 0.016 | -0.145 ± 0.15 |
| L86D | 0.0773 ± 0.069 | 0.0453 ± 0.16 |
| L86E | 0.095 ± 0.054 | 0.035 ± 0.1 |
| L86F | -0.233 ± 0.03 | -0.0781 ± 0.1 |
| L86G | 0.0492 ± 0.02 | -0.106 ± 0.061 |
| L86H | -0.0258 ± 0.048 | -0.0862 ± 0.046 |
| L86I | -0.191 ± 0.021 | -0.239 ± 0.11 |
